Reference: ChEMBL document CHEMBL4689842, “EUbOPEN Chemogenomics Library wave 1” (2021)
Certain results were filed several times, with different values. The list is limited to them. There may be further records. Results that share an entry are repeats across runs, samples, wells, individuals or studies.

Tests used:
Type in all cases: toxicity, cell-based
U2OS = test: Multiplex assay against U2OS; details: human
Summary of the method: (§1)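 On a CQ1 microscope at 37°C and 5% CO2, live cells were imaged after compound addition. They had been stained at seeding with Hoechst33342, BioTracker Green Microtubule Cytoskeleton Dye, MitoTracker Red and Annexin V Alexa Fluor 680. CellPathfinder machine-learning gating assigned cells to Hoechst high-intensity objects or normal cells, normal cells to healthy, pyknosed or fragmented nuclei, and pyknosed cells to mitotic or apoptotic. Tubulin, mitochondrial-mass and membrane-permeability phenotypes are per cents of healthy-nucleus cells.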

Fibroblast = test: Multiplex assay against human fibroblast; summary of the method: as §1
HEK-293T = test: Multiplex assay against HEK293T; details: human; summary of the method: as §1;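 for Population Tubulin-Different-Phenotype (%): share of the cells with healthy nuclei that show this phenotype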
[1] = 24 h, 10 µM, compound concentration 10 uM, replicate 2
[2] = 12 h, 10 µM, compound concentration 10 uM, replicate 1
[3] = 12 h, 10 µM, compound concentration 10 uM, replicate 2
[4] = 24 h, 10 µM, compound concentration 10 uM, replicate 1
[5] = 12 h, 1 µM, compound concentration 1 uM, replicate 1
[6] = 12 h, 1 µM, compound concentration 1 uM, replicate 2
[7] = 24 h, 1 µM, compound concentration 1 uM, replicate 1
[8] = 24 h, 1 µM, compound concentration 1 uM, replicate 2

With `C[C@@H]1CN(c2cc(-c3nn(C)c4ccc(OC5(C)CC5)cc34)ncn2)C[C@H](C)O1` [MLi-2-NC] the “Population Apoptotic (%)” value (U2OS; [1]) was 0% and 66%, the “Population Mitotic Cells (%)” value (U2OS; [1]) was 100% and 33% and the “Population Membrane Permeable-Phenotype (%)” value (Fibroblast; [2]) was 13% and 2%. The “Population Tubulin-Different-Phenotype (%)” value (Fibroblast; [2]) was 19% and 1%, the “Population Pyknosed Nuclei (%)” value (Fibroblast; [3]) was 18% and 4% and the “Population Mitochondria Different-Phenotype (%)” value (Fibroblast; [1]) was 28% and 7%. The “Population Pyknosed Nuclei (%)” value (Fibroblast; [1]) was 25% and 8%, the “Population Tubulin-Different-Phenotype (%)” value (HEK-293T; [2]) was 1% and 8% and the “Population Tubulin-Different-Phenotype (%)” value (HEK-293T; [4]) was 3% and 17%. For the same compound, the “Population Tubulin-Different-Phenotype (%)” value (HEK-293T; [1]) was 7% and 23%.
`O=C(O)c1ccc2c(c1)nc(Nc1cccc(Cl)c1)c1ccncc12` [SILMITASERTIB] was tested, and the “Population Mitochondria Different-Phenotype (%)” value (U2OS; [2]) was 10% and 35%, the “Population Tubulin-Different-Phenotype (%)” value (Fibroblast; [4]) was 5% and 1% and the “Population Mitochondria Different-Phenotype (%)” value (Fibroblast; [1]) was 7% and 25%. For the same compound, the “Population Tubulin-Different-Phenotype (%)” value (HEK-293T; [3]) was 20% and 5% and the “Population Tubulin-Different-Phenotype (%)” value (HEK-293T; [1]) was 32% and 4%.
With `FC(F)c1nc2ccccc2n1-c1nc(N2CCOCC2)nc(N2CCOCC2)n1` [ZSTK-474] the “Population Apoptotic (%)” value (U2OS; [5]) was 43% and 11%, the “Population Mitochondria Different-Phenotype (%)” value (U2OS; [5]) was 4% and 15% and the “Population Apoptotic (%)” value (U2OS; [6]) was 16% and 71%. The “Population Apoptotic (%)” value (U2OS; [7]) was 75% and 14%, the “Population Membrane Permeable-Phenotype (%)” value (U2OS; [7]) was 16% and 5% and the “Population Mitotic Cells (%)” value (U2OS; [7]) was 25% and 85%. The “Population Membrane Permeable-Phenotype (%)” value (Fibroblast; [5]) was 12% and 2%, the “Population Tubulin-Different-Phenotype (%)” value (Fibroblast; [5]) was 15% and 1% and the “Population Apoptotic (%)” value (Fibroblast; [6]) was 0% and 33%. The “Population Pyknosed Nuclei (%)” value (Fibroblast; [6]) was 1% and 7%, the “Population Tubulin-Different-Phenotype (%)” value (Fibroblast; [6]) was 7% and 60% and the “Population Mitochondria Different-Phenotype (%)” value (Fibroblast; [7]) was 5% and 1%. For the same compound, the “Population Tubulin-Different-Phenotype (%)” value (Fibroblast; [8]) was 8% and 30%, the “Population Tubulin-Different-Phenotype (%)” value (HEK-293T; [5]) was 6% and 19% and the “Population Hoechst High Intensity Objects (%)” value (HEK-293T; [6]) was 9% and 2%. The “Population Mitochondria Different-Phenotype (%)” value (HEK-293T; [6]) was 32% and 7%, the “Population Tubulin-Different-Phenotype (%)” value (HEK-293T; [6]) was 51% and 7% and the “Population Mitochondria Different-Phenotype (%)” value (HEK-293T; [7]) was 19% and 5%. The “Population Tubulin-Different-Phenotype (%)” value (HEK-293T; [7]) was 58% and 9%, the “Population Mitochondria Different-Phenotype (%)” value (HEK-293T; [8]) was 22% and 2% and the “Population Pyknosed Nuclei (%)” value (HEK-293T; [8]) was 9% and 1%. For the same compound, the “Population Tubulin-Different-Phenotype (%)” value (HEK-293T; [8]) was 87% and 7%.
